Experimental data from article PMC12301659.
These are yes or no findings as the source states them, for the method shown. Binding seen in cells or lysates may run through a third protein. Some results given as binding are weak or reduced against the parent protein; the word gives no strength. For some of these results: Sequences can lack the tags named with a protein. One block for each binder: values may come before it.

The chains behind the UniProt entries cited, without tags or fusion partners. Where a name states a change or a piece, a line headed by the entry shows the natural chain unless it says otherwise.
UniProt P62258: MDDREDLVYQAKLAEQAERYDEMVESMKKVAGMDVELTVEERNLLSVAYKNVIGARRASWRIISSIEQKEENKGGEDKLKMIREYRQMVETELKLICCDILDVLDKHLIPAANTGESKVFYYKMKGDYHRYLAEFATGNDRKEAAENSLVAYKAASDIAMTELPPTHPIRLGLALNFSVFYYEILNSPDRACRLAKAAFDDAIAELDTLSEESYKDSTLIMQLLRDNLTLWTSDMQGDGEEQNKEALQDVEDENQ

Columns and labels:
GST–14-3-3ε = GST–14-3-3ε (UniProt P62258); assay: pull-down; GST or GST fusion proteins bound to glutathione beads incubated with HCT116 lysates (untransfected or transfected with Myc-tagged constructs) in EBC lysis buffer, 4–5 h at RT or 16 h at 4°C; washed three times with NET-N; western blot; only the target purified
GST–14-3-3ε D127A = GST–14-3-3ε D127A (UniProt P62258); assay: as above
GST–14-3-3ε E134A = GST–14-3-3ε E134A (UniProt P62258); assay: as above
[1] = target: 14-3-3ε (endogenous) (human (endogenous in HCT116)) (UniProt P62258); assay: proximity ligation; Duolink PLA in fixed HCT116 cells transfected with Myc-tagged separase constructs; antibodies to Myc and (endogenous) 14-3-3ε; puncta per cell

- binding (GST–14-3-3ε): binds
- binding (GST–14-3-3ε D127A): binds
- binding (GST–14-3-3ε E134A): binds
B1: Cdc25C, endogenous (enzyme, UniProt P30307 1-473)
chain: MSTELFSSTREEGSSGSGPSFRSNQRKMLNLLLERDTSFTVCPDVPRTPVGKFLGDSANLSILSGGTPKRCLDLSNLSSGEITATQLTTSADLDETGHLDSSGLQEVHLAGMNHDQHLMKCSPAQLLCSTPNGLDRGHRKRDAMCSSSANKENDNGNLVDSEMKYLGSPITTVPKLDKNPNLGEDQAEEISDELMEFSLKDQEAKVSRSGLYRSPSMPENLNRPRLKQVEKFKDNTIPDKVKKKYFSGQGKLRKGLCLKKTVSLCDITITQMLEEDSNQGHLIGDFSKVCALPTVSGKHQDLKYVNPETVAALLSGKFQGLIEKFYVIDCRYPYEYLGGHIQGALNLYSQEELFNFFLKKPIVPLDTQKRIIIVFHCEFSSERGPRMCRCLREEDRSLNQYPALYYPELYILKGGYRDFFPEYMELCEPQSYCPMHHQDHKTELLRCRSQSKVQEGERQLREQIALLVKDMSP

- binding [1]: binds
B2: Myc-tagged separase auto-catalytic domain (AC) (domain or fragment, UniProt Q14674 1141-1650)
chain: SHSPTCDCSLCASPVLTAVCLRWVLVTAGVRLAMGHQAQGLDLLQVVLKGCPEAAERLTQALQASLNHKTPPSLVPSLLDEILAQAYTLLALEGLNQPSNESLQKVLQSGLKFVAARIPHLEPWRASLLLIWALTKLGGLSCCTTQLFASSWGWQPPLIKSVPGSEPSKTQGQKRSGRGRQKLASAPLRLNNTSQKGLEGRGLPCTPKPPDRIRQAGPHVPFTVFEEVCPTESKPEVPQAPRVQQRVQTRLKVNFSDDSDLEDPVSAEAWLAEEPKRRGTASRGRGRARKGLSLKTDAVVAPGSAPGNPGLNGRSRRAKKVASRHCEERRPQRASDQARPGPEIMRTIPEEELTDNWRKMSFEILRGSDGEDSASGGKTPAPGPEAASGEWELLRLDSSKKKLPSPCPDKESDKDLGPRLRLPSAPVATGLSTLDSICDSLSVAFRGISHCPPSGLYAHLCRFLALCLGHRDPYATAFLVTESVSITCRHQLLTHLHRQLSKAQKHRGSL
